Test results from article PMC6919601, “Identification of Plasmodium dipeptidyl aminopeptidase allosteric inhibitors by high throughput screening” (PLoS ONE, 2019).
The whole screen tested about 110,000 compounds, of which about 230 (0.21%) showed an effect of 50% or more. The list shows a part of the results.

The molecules below were run against DPAP1 (Plasmodium falciparum, UniProt Q8IIJ9) (assay: primary screen, percent inhibition; read by cleavage of a fluorogenic dipeptide substrate; higher = more effect of the substance).
DPAP1, sequence (Q8IIJ9 whole entry, looked up): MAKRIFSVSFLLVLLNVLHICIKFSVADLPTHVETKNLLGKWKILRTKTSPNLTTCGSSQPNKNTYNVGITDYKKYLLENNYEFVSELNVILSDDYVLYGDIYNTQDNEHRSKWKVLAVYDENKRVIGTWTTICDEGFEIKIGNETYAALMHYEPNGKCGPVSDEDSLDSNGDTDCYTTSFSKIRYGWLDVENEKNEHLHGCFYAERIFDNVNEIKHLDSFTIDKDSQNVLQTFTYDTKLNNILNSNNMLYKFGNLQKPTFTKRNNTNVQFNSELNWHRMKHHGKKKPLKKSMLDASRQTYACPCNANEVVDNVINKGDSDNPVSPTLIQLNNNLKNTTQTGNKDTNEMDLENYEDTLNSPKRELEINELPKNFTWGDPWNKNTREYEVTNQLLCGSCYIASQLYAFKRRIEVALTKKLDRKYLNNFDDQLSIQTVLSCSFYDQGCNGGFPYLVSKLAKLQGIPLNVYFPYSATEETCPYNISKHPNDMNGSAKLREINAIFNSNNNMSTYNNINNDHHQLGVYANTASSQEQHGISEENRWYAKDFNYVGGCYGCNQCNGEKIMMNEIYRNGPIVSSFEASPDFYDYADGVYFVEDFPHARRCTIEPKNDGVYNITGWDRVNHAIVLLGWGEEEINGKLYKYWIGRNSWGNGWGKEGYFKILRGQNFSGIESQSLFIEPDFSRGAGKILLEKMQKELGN
Design: species or system P. falciparum D10 trophozoite lysates; single well
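Note: 30 min substrate incubation versus DMSO and 10 µM JCP410 controls.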

SMILES	% Inhibition @ 10 uM [%]
COc1ccc(C2C(C#N)=C(N)OC3=C2C(=O)CC(C)(C)C3)c(OC)c1OC (centres unmarked)	-7.09
CCOc1c(/C=C2/SC(=O)NC2=O)cccc1OC	-6.41
COc1ccc(Cn2c(C(=O)O)c(CNC3CCC(C)CC3)c3ccccc32)cc1 (centres unmarked)	2
Clc1ccc(Cl)c(SCCc2ccncc2)c1	1.9
CCCOc1ccc(C(=O)Nc2ccc(N3CCN(C(=O)c4ccco4)CC3)cc2)cc1	1.84
Nc1c(C(=O)NCC(=O)O)sc2nc(-c3cccnc3)cc(C(F)(F)F)c12	5.12
Cc1ccc(N(C(=O)c2ccco2)C2C=CS(=O)(=O)C2)cc1 (centres unmarked)	5.03
Cc1ccc(CNC(=O)C2CCCN(c3nnc(-n4cccc4)s3)C2)o1 (centres unmarked)	-6.96
Cc1ccc(S(=O)(=O)N(C)CC(=O)Nc2ccc(C(N)=O)cc2)cc1	5.07
Cc1ccc(Cc2c(C)nc3c(C(=O)NC4CCCCC4C)cnn3c2C)cc1 (centres unmarked)	1.27
Cc1ccc(C#N)c(SCc2ccccc2F)n1	-0.268
Cc1cc2c(n1-c1ccc(C(=O)NCc3cccnc3)cc1)CCCC2	6.3
COc1ccc(CN(C(=O)COc2c(C)cc(C)cc2C)C2CCS(=O)(=O)C2)cc1OC (centres unmarked)	1.92
O=C(NCC1NCCc2ccccc21)C1CCCCC1 (centres unmarked)	-1.74
N#CC1=C(N)Oc2[nH]nc(-c3cccs3)c2C1c1cccs1 (centres unmarked)	2.32
COc1ccc(-c2onc(C)c2C)cc1S(=O)(=O)N1CCC(N2CCCCC2)CC1	-1.52
COC(=O)C1=C(Cn2cncn2)NC(=O)NC1c1ccc(Cl)cc1 (centres unmarked)	-2.79
Cc1cc(N2C(=O)C3C4CCC(C4)C3C2=O)no1 (centres unmarked)	-1.2
COc1ccccc1CN(C(=O)Nc1cn(CC(C)C)c(=O)c2ccccc12)C1CCN(C)CC1	3.76
CCOc1ccc(N(CC(=O)N2CCc3ccccc3C2)S(=O)(=O)c2ccc(Cl)cc2)cc1	0.643
CC(C)=C1C2C=CC1C1C(=O)N(c3ccc(C)c(C)c3)C(=O)C21 (centres unmarked)	-0.736

SMILES	% Inhibition @ 10 uM [%]
CCOc1ccc2c(c1)nc(SCC(=O)c1ccccc1)n2C	9.06
O=C(NCc1cccnc1)[C@@H](c1ccccc1)N1Cc2ccccc2C1=O	2.93
O=C(C(Sc1ccccc1)c1ccccc1)N1CCOCC1 (centres unmarked)	5.58
N#C/C(=C\c1ccc(Cl)cc1Cl)c1nc(-c2ccccc2)cs1	1.13
Cc1cc(C)c(C)c(S(=O)(=O)NCC(=O)N2CC(C)OC(C)C2)c1C (centres unmarked)	-2.39
CC(C)(C)NC(=O)N1c2ccccc2Sc2ccccc21	-7.34
O=C(O)CCCC(=O)Nc1cccc2ccccc12	-1.86
CCCN(CCC)CCNC(=O)c1nc(-c2cccc(F)c2)n2c1CCCCC2	-7.18
COCCN1C(=O)c2[nH]nc(-c3ccccc3O)c2C1c1ccc(OC)cc1 (centres unmarked)	-3.12
CCCSCCCNC(=O)C1CCN(c2nn3c(=O)cc(C)nc3s2)CC1	7.53
O=C(C1=C(O)C(=O)N(CC2CCCO2)C1c1ccc(F)cc1)c1ccc(Br)cc1 (centres unmarked)	-1.45
C#CCSc1nc2c(c(=O)n1-c1ccccc1)C1(CCCCC1)Cc1ccccc1-2	-7.15
CC(Nc1ccc([N+](=O)[O-])c2cccnc12)C12C[C@H]3C[C@@H](C1)C[C@@H](C2)C3 (some centres unmarked)	2
O=C(Nc1nnc(C23CC4CC(CC(C4)C2)C3)s1)c1cccs1	3.25
Cc1ccc2nc3nc(C)cc(C)c3c(N)c2c1	-2.26
CC(=O)c1c(CN(C)C23CC4CC(CC(C4)C2)C3)nc2n(C)c3ccccc3n12	-2.81
COC(=O)C1=CN(CC23CC4CC(CC(C4)C2)C3)C=C(C(=O)OC)C1c1cccc(OC)c1OC	-2.5
O=C(NCc1noc2ccccc12)N1CCC2(CC1)OCCO2	1.41
CCc1nn2c(=O)cc(CSc3nc4sc5c(c4c(=O)n3C)CCCC5)nc2s1	39.1
N#Cc1c(N)nc2c(c1-c1ccccc1Cl)CCC2	1.38
CC(C)c1ccc(NC(=O)c2ccc(Cl)c([N+](=O)[O-])c2)cc1	-1.92

SMILES	% Inhibition @ 10 uM [%]
O=C(NCc1cccnc1)c1ccccc1C(=O)c1ncc[nH]1	3.65
CCCCCCOc1ccc(NC(=O)c2c(O)c3ccccc3n(C)c2=O)cc1	-0.413
Cc1cccc(CN2CCN(c3ncccn3)CC2)c1	-8.28
COc1ccccc1-c1coc2cc(OCC(=O)O)ccc2c1=O	-1.92
Cc1cc(/C=C2\NC(=S)NC2=O)c(C)n1-c1ccc(N(C)C)cc1	-1.2
COc1ccc(-c2cc(C(N)=O)c3ccccc3n2)cc1	-3.06
CCC(=O)N1c2ccccc2N=C2CC(C)(C)CC(O)=C2C1c1cccc(OC)c1 (centres unmarked)	2.38
Cc1nc2ccc(S(=O)(=O)N(C)CC(=O)N3CCc4ccccc4C3)cc2s1	-2.25
COc1cc(C2C(C#N)=C(N)N(c3c(F)cccc3F)C3=C2C(=O)CC(C)(C)C3)ccc1O (centres unmarked)	3.46
O=C(NCc1ccccc1)c1ccccc1-c1nc2ccccc2[nH]1	4.38
CCCn1c(=O)c2sccc2n2c(CCCC(=O)NCCc3ccccc3)nnc12	-8.11
CCn1c(CSc2nc3ccccc3s2)nc2ccccc21	0.484
CCCOc1ccc(C(=O)C2=C(O)C(=O)N(CCCN(C)C)C2c2ccc(OC)c(OC)c2)c(C)c1 (centres unmarked)	1.52
C=CCn1c(SCC(=O)Nc2nccs2)nc2sc(CC)cc2c1=O	-1.84
CCN(CC)CCNCc1nc2ccccc2c(=O)n1-c1ccc(F)cc1	3.58
CCCc1nc2nc(C)c(NS(=O)(=O)c3ccc(C)cc3C)c(O)n2n1	0.454
Cc1ccc([N+]2=C3CCCCCN3CC2(O)c2ccccc2)cc1 (centres unmarked)	-1.84
CN(C)CCCN(CCCN(C)C)Cc1cccc2ccccc12	-5.65
COc1ccc(-c2ccc(/C=C3/SC(=O)NC3=O)o2)cc1Cl	13
Cc1ccc(/C=C(\NC(=O)c2ccccc2)C(=O)NC2CCN(Cc3ccccc3)CC2)o1	4.33
